# Assay results from PubChem BioAssay AID485294 (National Center for Advancing Translational Sciences (NCATS), 2010).
# Hit rate of the full screen: of about 370,000 compounds, about 150 (0.041%) were called active. Inconclusive results, whose numbers are uncertain, are shown with a selection of clear calls. Calls come from the whole dose curve; as a rule, active = well fitted inhibition curve with a large enough effect; inconclusive = small, poorly fitted or top-dose-only effect; inactive = flat fitted curve, though single readings scatter. Potencies of inconclusive entries are left out as doubtful fits.
# Target: Beta-lactamase (Escherichia coli (strain K12)) (UniProt P00811)
# Sequence of UniProt P00811 (P00811 whole entry, looked up): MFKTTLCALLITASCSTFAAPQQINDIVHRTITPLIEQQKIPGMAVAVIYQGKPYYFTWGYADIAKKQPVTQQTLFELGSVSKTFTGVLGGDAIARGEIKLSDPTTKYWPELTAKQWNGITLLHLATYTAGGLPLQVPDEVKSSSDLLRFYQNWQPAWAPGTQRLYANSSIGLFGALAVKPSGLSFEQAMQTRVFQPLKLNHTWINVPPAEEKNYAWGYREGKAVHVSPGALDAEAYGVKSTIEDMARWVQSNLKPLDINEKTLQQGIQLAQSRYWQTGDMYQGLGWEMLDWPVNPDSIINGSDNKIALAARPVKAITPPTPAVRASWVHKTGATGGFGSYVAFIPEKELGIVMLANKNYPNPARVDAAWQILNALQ
# Assay: qHTS Inhibitors of AmpC Beta-Lactamase (assay with detergent); note: nearly all actives have a fitted effect of over 25% in size;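 for activity change, negative = inhibition: 0% = no-compound wells and -100% = no-enzyme wells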
# Conditions: AmpC hydrolysis of nitrocefin, absorbance 480 nm, 0.01% Triton; activity change, negative = inhibition: at 114 µM (top of the series)
# Method in brief: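 20 mM phosphate pH 7.0 + 0.01% (detergent screen) or 0.0001% Triton X-100; 5.3 nM AmpC reagent; cpd preinc 15 min RT; nitrocefin (800 uM stock) to start; A480 q20 s × 4 min; Activity was normalised to no-enzyme and no-compound control wells.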
# Potency is the fitted concentration of half-maximal effect; tags give direction and shape of the fitted curve.
Compound,Potency,"activity change, negative = inhibition"
CC#CC(=O)NC1CCCN(C2Cc3ccccc3C2)C1 (stereo not drawn),"inconclusive [inhibitor, full curve, poor fit]",
CC(=O)c1c(C)[nH]c(C(=O)N(C)CC(=O)Nc2ccc(Cl)c(C(F)(F)F)c2)c1C,"inconclusive [inhibitor, partial curve]",
CCOc1ccccc1NC(=S)NCC1CCCO1 (stereo not drawn),"inconclusive [inhibitor, full curve]",
Cc1ccc(-n2nc(CO)c(C(=O)NCc3cccnc3)n2)cc1,,inactive: 17.9%
O=C(O)c1cccc(N2C(=O)CSC2=S)c1,,inactive: -14.3%
CCc1ccc(S(=O)(=O)c2cn(Cc3ccccc3)c3cc(F)c(F)cc3c2=O)cc1,,inactive: -11.2%
COc1ccc(CCNC(=O)CSc2nc3ncccc3[nH]2)c(OC)c1,,inactive: 4.3%
CCOc1ccccc1NC(=O)NNS(=O)(=O)c1cc(OC)ccc1OC,"inconclusive [inhibitor, full curve]",
CCc1ccccc1NC1c2ccccc2C(=O)N1c1cc(C)ccn1 (stereo not drawn),"inconclusive [inhibitor, full curve]",
O=C(c1ccccc1)c1c[nH]cc1-c1ccccc1,"inconclusive [inhibitor, partial curve, poor fit]",
O=C(CN(C(=O)Cn1nnc(-c2cccs2)n1)c1cnc2ccccc2c1)NCC1CCCO1 (stereo not drawn),"inconclusive [inhibitor, single point]",
O=C(N/N=C/c1cccnc1)c1[nH]ncc1Br,,inactive: 4.23%
O=C(C1CC1)N1CCC(c2nc(-c3ccc(S(=O)(=O)N4CCCC4)cc3)no2)CC1,,inactive: -12.5%
O=C(Nc1nnc(SCc2ccc(F)cc2)s1)C1=COCCO1,"inconclusive [inhibitor, partial curve, poor fit]",
Cc1nn(CC(=O)N(C)C2CCS(=O)(=O)C2)c(C)c1S(=O)(=O)N(C)C (stereo not drawn),"inconclusive [inhibitor, full curve]",
C=CCSc1nccc(-c2cc(Cl)sc2Cl)n1,"inconclusive [inhibitor, partial curve, poor fit]",
Cc1cc2oc(=O)cc(C)c2c2occ(-c3ccc(Cl)cc3)c12,,inactive: 5.79%
O=C(COc1cccc(-n2cnnn2)c1)N1CCOCC1,"inconclusive [inhibitor, full curve, poor fit]",
CC(=O)c1ccc(OCCCC(=O)Nc2ccc(S(=O)(=O)N3CCOCC3)cc2)cc1,,inactive: -13.5%
COc1cc(OC)cc(-c2cc3nc(C)c(CCC(=O)NCc4ccc(Cl)cc4)c(C)n3n2)c1,,inactive: 20.6%
Nc1cc(=O)[nH]c(SCC(=O)Nc2cc(Cl)cc(Cl)c2)n1,,inactive: -5.94%
C(=C\c1nnc(-c2cccs2)o1)/c1ccccc1,,inactive: -0.99%
O=C1[C@H]2[C@@H](c3ccc(F)cc3)N3C(=O)N(c4cccc(Cl)c4)C(=O)[C@@]3(Cc3ccc(Cl)cc3)[C@H]2C(=O)N1C1CCCCC1,"inconclusive [inhibitor, full curve]",

Compound,Potency,"activity change, negative = inhibition"
COc1cccc(N2CCN(C(=O)CCS(=O)(=O)c3ccc4c(c3)oc(=O)n4C)CC2)c1,inactive,
C/C(=N\NC(=O)OC(C)(C)C)c1ccc(-n2ccnc2)cc1,"inconclusive [inhibitor, partial curve]",
O=C(c1ccc(Cl)cc1)c1cnc(Nc2ccccc2Cl)s1,"inconclusive [inhibitor, partial curve, poor fit]",
O=C(Cc1cccs1)OCC(=O)c1ccco1,,inactive: -9.12%
COc1ccc(NC(=O)CSc2nc(C)c3c(c2C#N)CCCC3)cc1,"inconclusive [inhibitor, full curve, poor fit]",
CCCCn1nnc(NC(=O)c2ccc(-c3ccccc3[N+](=O)[O-])o2)n1,"inconclusive [inhibitor, full curve, poor fit]",
COc1ccc(-c2nc(CS(=O)CC(=O)NCc3ccc(Cl)cc3)c(C)o2)cc1 (stereo not drawn),"inconclusive [inhibitor, partial curve, poor fit]",
CCOC(=O)c1cc(OC(=O)c2ccccc2C)n(-c2ccccc2)n1,,inactive: 15.1%
CCN1CCN(C(=O)C2=CC(c3ccc(OC)cc3)=NS(=O)(=O)N2C)CC1,"inconclusive [inhibitor, full curve, poor fit]",
CCOc1ccc(OCCN2CCCCC2)cc1,"inconclusive [inhibitor, single point]",
CCN(CC(=O)Nc1ccccc1OC)CC(=O)Nc1sccc1C#N,"inconclusive [inhibitor, full curve]",
Cc1cccc(C)c1OCC(=O)Nn1c(COc2ccccc2)nc2ccccc2c1=O,"inconclusive [inhibitor, full curve, poor fit]",
CN(CC(=O)Nc1cccc(F)c1)C(=O)c1ccc(N2CCCCC2)c([N+](=O)[O-])c1,"inconclusive [inhibitor, full curve, poor fit]",
COc1ccc(C(=O)Nc2cccc(C)c2)cc1,,inactive: -8.55%
Cc1ccc(-n2cccc2/C=C2\C(=N)N3N=C(c4ccco4)SC3=NC2=O)cc1,"inconclusive [inhibitor, full curve]",
O=C(CNC(=O)c1ccc(Cl)c([N+](=O)[O-])c1)OC1CCCCC1=O (stereo not drawn),"inconclusive [inhibitor, full curve, poor fit]",
COc1ccc(CNC(=O)C2CCCN(c3nc4ccccc4o3)C2)c(OC)c1 (stereo not drawn),"inconclusive [inhibitor, full curve, poor fit]",
O=C(Nc1ccc(F)cc1)N1CCN(c2ncccn2)CC1,,inactive: 2.05%
CN(CC(=O)NNC(=O)CNC(=O)c1cccs1)S(=O)(=O)c1ccc(Cl)cc1,"inconclusive [inhibitor, full curve, poor fit]",
CN(C(=O)CSc1nnc2ccccn12)c1c(N)n(Cc2ccccc2)c(=O)[nH]c1=O,"inconclusive [inhibitor, full curve, poor fit]",
CCC(C)(C)n1nnnc1C(c1ccccn1)N1CCOCC1 (stereo not drawn),"inconclusive [inhibitor, partial curve, poor fit]",
CCC(C)c1ccc(NC(=O)c2cccs2)cc1 (stereo not drawn),"inconclusive [inhibitor, full curve, poor fit]",
CN(C)C(=O)Oc1ccc(Cl)c2ccccc12,"inconclusive [inhibitor, full curve, poor fit]",

Compound,Potency,"activity change, negative = inhibition"
Cc1ccc2c(c1)nnn2C1CCN(CC(=O)Nc2ccc(F)cc2)CC1,,inactive: -9.73%
Cc1ccc(Nc2nc(N)c([N+](=O)[O-])c(NCCO)n2)cc1C,,inactive: 0.639%
COc1cccc(C2CC(c3ccccc3OC)n3nc(N)nc3N2)c1 (stereo not drawn),"inconclusive [inhibitor, partial curve, poor fit]",
CN=c1scc(C)n1/N=C/c1ccc2c(c1)OCO2,"inconclusive [inhibitor, full curve, poor fit]",
CC#CCCCC(=O)Nc1cccc(C(=O)O)c1,"inconclusive [inhibitor, full curve, poor fit]",
COc1ccccc1C(=O)N1CCN=C1SCc1cccnc1,"inconclusive [inhibitor, partial curve, poor fit]",
Cc1ccc(NC(=O)c2ccc(CSc3nnc(C)s3)cc2)c(C)c1,"inconclusive [inhibitor, full curve, poor fit]",
COc1ccc(O)c(-c2cc(-c3cccs3)[nH]n2)c1,"inconclusive [inhibitor, full curve, poor fit]",
CCC(C(=O)OC)n1cnc2c(nnn2-c2ccc(F)cc2)c1=O (stereo not drawn),"inconclusive [inhibitor, full curve]",
CCOC(=O)c1cc(NC(=O)c2ccccc2)c(=O)n2c1oc1ccccc12,,inactive: 5.45%
CCOc1ccc(N2Cc3ccccc3C2)cc1,"inconclusive [inhibitor, full curve, poor fit]",
COc1ccc(NC(=O)c2ccco2)c2ccccc12,"inconclusive [inhibitor, full curve, poor fit]",
CNC(=O)Cn1nc(-c2ccc(C)cc2)c2ccccc2c1=O,"inconclusive [inhibitor, full curve, poor fit]",
CCOc1ccc(C(=O)NC(=S)Nc2ccccc2N2CCC(C)CC2)cc1[N+](=O)[O-],"inconclusive [inhibitor, partial curve, poor fit]",
COc1cccc(OC)c1C1=NCC(=O)Nc2c1oc1ccc(Br)cc21,"inconclusive [inhibitor, partial curve]",
O=C(O)C1CC(=O)N(c2ccc(OCc3ccccc3Cl)cc2)C1 (stereo not drawn),"inconclusive [inhibitor, single point]",
Cc1cc(C)c2nc(SCCC#N)nc(C)c2c1,"inconclusive [inhibitor, partial curve, poor fit]",
COc1cc2c(cc1OC)CN(c1ccc(-c3ccccc3OC)nn1)CC2,"inconclusive [inhibitor, full curve]",
Cc1ccnc(-n2sc3ccccc3c2=O)n1,"inconclusive [inhibitor, full curve]",
CCOCCN(C(=O)COC)c1cccc(OC)c1,"inconclusive [inhibitor, partial curve, poor fit]",
Cc1ccc(OCCCCNC2CCCC(C)C2C)c(C)c1 (stereo not drawn),,inactive: 3.56%
COC(=O)CN1CCN(C(c2ccccc2)c2ccccc2)CC1,"inconclusive [inhibitor, partial curve]",
